Experimental data taken from PubChem BioAssay AID1508624 (National Center for Advancing Translational Sciences (NCATS), 2021).
Screen size: about 48,000 compounds; about 120 (0.25%) were called active. Not shown: some 4% with an inconclusive outcome. Calls come from the whole dose curve; as a rule, active = well fitted activation curve with a large enough effect; inconclusive = small, poorly fitted or top-dose-only effect, or another doubt; inactive = no such curve, though single readings can be large or run the other way. The list shows a part of the results.

test: Primary qHTS for Identification of Small Molecule Activators of Huntingtin-Antisense Promoter Activity; settings: HEK293 HTT-AS promoter firefly luciferase reporter, 24 h; series mostly up to 57.5 µM; activity change, positive = activation: at the top concentration; note: nearly all actives have a fitted effect of over 55% in size
Procedure, shortened: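 HEK293 cells carrying firefly luciferase reporters were seeded at 2,500 per well in Opti-MEM and cultured for 24 h. They were then treated with compounds at up to 57.5 uM final for 24 h at 37 degrees C before Dual-Glo luminescence readout.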

Activity change, positive = activation, inactive:
O=C(NCc1cccs1)c1nn(-c2ccccc2Cl)nc1CO -8.86%
COCCCNc1nc2c(S(=O)(=O)c3ccccc3)nnn2c2ccc(Cl)cc12 -1.34%
CC1=C(C(=O)Nc2ccccc2)C(c2ccccc2C)n2nc(SCC(=O)c3ccc(C)cc3)nc2N1 (stereo unspecified) -2.66%
Cc1[nH]n(-c2ccccc2)c(=O)c1C(c1cc(Cl)ccc1O)c1c(C)[nH]n(-c2ccccc2)c1=O -8.64%
CCOC(=O)c1ccccc1NC(=O)N1CCN(Cc2cc(=O)n3nc(-c4ccccc4)sc3n2)CC1 -3.08%
O=C(NCCc1csc(-c2ccc(C(F)(F)F)cc2)n1)c1ccc(F)c(F)c1 -48.1%
CCOc1ccc(-c2cc(CCCC(=O)NCCc3ccc(Cl)cc3)no2)cc1 -73.3%
Cc1cccc(NC(=O)CSc2nc(-c3cccs3)cc(C(F)(F)F)c2C#N)c1C 6.21%
CCN(c1cccc(C)c1)S(=O)(=O)c1ccc(-n2cccn2)cc1 -36.1%
CCc1ccc(NC(=O)CCS(=O)(=O)c2cc3c(cc2Cl)NC(=O)CO3)cc1 -0.363%
Cc1ccc2[nH]cc(S(=O)(=O)c3ccc(C)c(C)c3)c(=O)c2c1 -9.47%
Cc1ccc(F)cc1NC(=O)CCc1c(C)nn(-c2ccc(N3CCOCC3)nn2)c1C 6.42%
CC1Cn2c(C(=O)NCCc3ccc(Cl)cc3)cc3cccc(c32)S1 (stereo unspecified) -25.1%
CCN(CC)CCNc1ccc(CO)c2sc3ccccc3c(=O)c12 -56.1%
Cc1c(C(=O)N2CCCC2)oc2c1-c1nn(CC(=O)NCc3ccccc3Br)cc1CC2 -32.3%
Cc1ccc(/C=C/c2onc(C)c2S(=O)(=O)N2CCC(C(=O)N3CCOc4ccc(C)cc43)CC2)cc1 -20.6%
COc1ccc(NC(=O)CCS(=O)(=O)c2nc(-c3ccc4c(c3)OCO4)cc(C(F)(F)F)n2)cc1 -40.9%
CSc1ccc(C2CC(=O)Oc3c2c(=O)n(C)c2ccccc32)cc1 (stereo unspecified) 5.07%
O=C(CN1C(=O)COc2ccc(S(=O)(=O)N3CCCCCC3)cc21)Nc1cccc(Cl)c1 -34.8%
COc1ccc(-c2cc(C(=O)Oc3ccc(C)cc3)c3cc(C)ccc3n2)cc1 10.3%
Cc1cc(=O)n(C(C)C(=O)N2CCCc3ccccc32)c2c1c(C)nn2-c1ccccc1 (stereo unspecified) -44.4%
CCOc1ccc2nc3cc(N)ccc3c(N)c2c1 -28.9%
Cc1[nH]n2c(=O)cc(-c3ccc(Cl)cc3)nc2c1-c1ccccc1 -58.7%
Cn1c(=O)c2c(nc(N3CCOCC3)n2Cc2cccc(Br)c2)n(C)c1=O -6.36%
Cc1ccccc1CNC(=O)Cc1ccc(NC(=O)N2CCCCc3ccccc32)cc1 -9.21%
COc1ccc(N2CCN(C(CNC(=O)C(=O)NCc3cccnc3)c3cccnc3)CC2)cc1 (stereo unspecified) -24.9%
CCOc1ccc(C(=O)c2cn(CC(=O)Nc3cccc(OC)c3)c3cc4c(cc3c2=O)OCCO4)cc1 -15%
Cc1c(C(=O)N2CCCCC2)c(S(=O)(=O)NCc2ccc(N(C)C)cc2)c(C)n1C -4.24%
CC(=O)OC[C@H]1O[C@@](COC(C)=O)(O[C@H]2O[C@H](COC(C)=O)[C@@H](OC(C)=O)[C@H](OC(C)=O)[C@H]2OC(C)=O)[C@@H](OC(C)=O)[C@@H]1OC(C)=O -7.68%
COc1ccccc1CNC(=O)C(C)n1ccc2cc(S(=O)(=O)N3CCCC3)ccc21 (stereo unspecified) -4.07%
COc1ccc(CNC(=O)c2ccc3nc(CCc4ccccc4)oc3c2)cc1 12.2%
CCOc1ccc(NC(=O)C2CCN(c3nnc(C)c4c(C)n(-c5ccccc5)nc34)CC2)cc1 -3.84%
Cc1ccc(NC(=O)CSc2nc3c([nH]c4ccccc43)c(=O)n2-c2ccccc2)cc1Cl -32.6%
Cc1ccc(-c2[nH]c3c(c2-c2c(-n4cccc4)n(C)c(=O)[nH]c2=O)c(=O)[nH]c(=O)n3C)cc1 -9.76%
CCOC(=O)c1c(C)oc2nc(C)nc(N3CCN(c4ccccc4F)CC3)c12 -42.5%
Cc1cccc(N2CCN(C(=O)C3CCN(C(=O)c4cc5sccc5n4C)CC3)CC2)c1C -33.5%
CCc1nc(SC)ncc1C(=O)N1CCN(c2cc(Cl)ccc2C)CC1 -35.8%
Cc1nn(C(C)C(=O)Nc2ccc(C(C)C)cc2)c(=O)c2c1sc1ccccc12 (stereo unspecified) -15.1%
CC(NC(=O)C1CCN(S(=O)(=O)c2ccccc2)CC1)c1ccccc1 (stereo unspecified) -6.05%
COc1cc(/C=C(\C#N)c2nc3ccccc3[nH]2)ccc1OCc1ccc(F)cc1 -19.7%
COc1cc(-c2nc(SCC(=O)Nc3ccc(C)cc3)c(-c3ccc(F)cc3)[nH]2)cc(OC)c1OC -39.4%
CCCN(CCC)CCCNC(=O)c1cnn(-c2ccc(F)cc2)c1-n1cccc1 -9.7%
Cc1cccc(-c2nn3c(=O)cc(CN4CCN(C(=O)c5ccccc5Br)CC4)nc3s2)c1 -3.35%
C#CC(C)(CC)NC(=O)Cn1nnc(-c2ccc(OCc3ccccc3C)cc2)n1 (stereo unspecified) -22.1%
COc1ccccc1N1CCN(C(=O)c2cnn(-c3cccc(Cl)c3)c2C2CCN(C(=O)OC(C)(C)C)CC2)CC1 -34.5%
CCCn1c2ccccc2c2cnn(CC(=O)NCC3CCN(Cc4ccc(F)cc4)CC3)c(=O)c21 -25%
CCc1ccccc1NC(=O)c1cc(S(=O)(=O)N2CCc3ccccc32)ccc1F -34.2%
CN(Cc1cnc2nc(N)nc(N)c2n1)c1ccc(C(=O)N[C@@H](CCC(=O)O)C(=O)O)cc1
COc1ccccc1CNc1nc(-c2ccco2)nn1C(=O)c1cc(OC)c(OC)c(OC)c1 25.2%
Cc1ccccc1CNC(=O)C1=Cc2ccccc2OC1 13.3%
Cc1ccc(-c2nnc(Nc3ccc(OC(F)(F)Cl)cc3)c3ccccc23)cc1S(=O)(=O)NC(C)(C)CO -11.1%
CC(=O)N1CCc2c(sc3nc(SCC(C)C)n(-c4ccc(C)c(Cl)c4)c(=O)c23)C1 -41.5%
N[C@@H](Cc1ccc(O)cc1)C(=O)O 1.4% [at 11.5 µM, percent change from vehicle, -100% = no light]
CCCCn1c(=N)c(S(=O)(=O)c2ccc(C)cc2)cc2c(=O)n3cc(C)ccc3nc21 -6.11%
CCc1nn2c(=O)cc(COC(=O)c3ccc(NC(=O)CCc4ccccc4)cc3)nc2s1 -6.36%
O=C(COc1ccc(Cl)cc1)N1CCN(Cc2ccc3c(c2)OCO3)CC1 -21.9%
